Experimental data taken from a collection of fitness landscapes (doi:10.1016/j.celrep.2020.107928).
Over roughly 81,000 sequences, “one-hybrid fitness for binding parS DNA” has its median near -0.17; the highest 2% begin near 0.51. This is one part of the list.

B1: Caulobacter ParB omega fusion; a variant is named by its letters at X, in order, B8GW30 (parent)
chain: MESVVVGEPGMSEGRRGLGRGLSALLGEVDAAPAQAPGEQLGGSREAPIEILQRNPDQPRRTFREEDLEDLSNSIREKGVLQPILVRPSPDTAGEYQIVAGERAWRAAQRAGLKTVPIMVRELDDLAVLEIGIIENVQRADLNVLEEALSYKVLMEKFERTQENIAQTIGKSXSHVANXMRLLXLPDEVQSYLVSGELTAXHARAIAAAADPVALAKQIIEGGLSVRETEALARKAPNLSAGKSKGGRPPRVKDTDTQALESDLSSVLGLDVSIDHRGSTGTLTITYATLEQLDDLCNRLTRGI

Variants of: B1
Assay: one-hybrid fitness for binding parS DNA (scaled: cognate 1, non-cognate 0); higher = stronger binding
Details: with parS DNA site
In short: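 Values were rescaled so that cognate is 1 and non-cognate is 0. Each is a fitness, the log change in a variant's read ratio to wild type from Illumina reads of plasmids before and after selection, with three replicate libraries pooled and variants under 10 reads dropped. Selection of the Caulobacter ParB libraries, four specificity codons randomised, used E. coli USO with a HIS3 reporter, site 19 bp from the promoter, on M9-minus-histidine with 0.1 mM IPTG and 5 mM 3-AT for 48 hours at 37°C.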

one-hybrid fitness for binding parS DNA, ≤ 0.2:
KKNR
PLNS
CIHG
QKLW
GHTP
DLER
DRHS
HSKG
TVRY
LMAE
EPIT
AVHG
RPTH
IDTT
VRMC
SMPA
KTSG
TDYG
DVFV
DAHL
ITFR
KFYS
GDNC
GRRT
DDVF
GFYT
QYHW
RRLK
HYRL
HGDC
CSWL
IHRV
HNSW
GAYT
LHGG
RRNK
YRRE
EANG
IINR
MCRA
WLTC
YQHG
FHLT
MSHT
RHQE
TWSD
VYWW
WLVR
TTSP
RNKR
EMEE
VAAG
PLQA
MACW
VKES
CTKT
PYEC
SFNS
LEAI
PFAI
DINT
MYHC
GPNN
TTAY
RKAH
LGVH
GMMA
TEGK
WCWG
HSHC
PVAI
PIDT
RIHP
MQMT
ASNT
NSST
RWRD
QCDL
LGVF
DTRA
AIED
SDIF
VPPN
LWHS
IWPG
WSHC
CTQC
CKVC
WLNL
KVCI
YCRT
AYRL
QCYA
TRQV
DNGV
TREI
VEET
LLVE
SFSW
DMQR
ENHM
LVLG
PFVS
LQLC
IIPG
SPPW
EIVS
LRHN
PHLV
IRRL
PQKH
FRVV
RRHQ
ENNG
RPSG
LPTH
FCAR
SKWT
KMTA
YIMT
MLRA
CLIC
TGKC
DDSA
KVVI
GKGT
QARD
REGL
PSWC
ELSY
TDQN
WQLC
VSAN
KHGR
CKNT
LRLQ
SYVF
FSGS
NLRD
PFRL
RWKV
TSAH
YRYC
LPGS
FSNT
WPNS
SMLV
LPPQ
MEDL
HKCY
SNAP
IPFS
NDFG
QCKR
QHDN
WEMC
MRGS
AKSH
FPSM
DMAY
YSVT
AFPA
HQAC
NPKH
MPHR
CFNA
PGAY
SMSC
QKGP
WMHG
TSPL
RIQI
ITGL
KPEL
CNHS
LSLG
TKPI
HIRH
PLST
GFAR
LSVE
PAHM
YITR
TNRL
VFTD
TAED
VAKA
EVSW
PFST
AACV
KPST
IASG
ARCY
MCHG
IAGE
SITF
SHLC
GQET
MTNT
KFRV
THVW
NPAW
SPSN
SGQI
TGTD
QSAC
LAPM
IYHR
WSMM
RAHD
FLMT
GTHT
YKSC
CYKS
AADL
DIHR
CDTR
VLMS
PVKI
VWNC
QSKK
QMIG
YWYV
RYDD
ISLR
HMMA
PLLP
FSSY
LCEP
EPTN
FQAG
TLEW
AHTF
TFYT
DSCY
MCLY
DCYS
KFRT
SMGN
YPTD
DLAW
WETT
DNTF
ADFR
NAIG
MVHC
GADI
DTAS
HLSC
SATG
NAWA
LDDT
GVTY
NGRH
NRYG
ERKL
AIGA
ERLT
TWAI
SGDS
LQRR
TSIF
GHPG
SKQC
DDPR
LSVV
YLHD
EKFT
SIFD
PCRS
HPMS
CSLL
VTIM
FRDG
SMLK
HTVC
QASQ
PMER
ASGE
CKGS
DTKM
KTPI
DALD
PHRR
HATS
KDCL
IRGR
YEHS
ASGT
PMGG
AAFP
HNSE
GFNP
YMIS
LMGT

one-hybrid fitness for binding parS DNA, 0.324:
DVFL

one-hybrid fitness for binding parS DNA, 0.216:
RQMF

one-hybrid fitness for binding parS DNA, 0.486:
RQVA

one-hybrid fitness for binding parS DNA, 0.217:
NEGT

one-hybrid fitness for binding parS DNA, 0.965:
RYFC

one-hybrid fitness for binding parS DNA, 0.567:
RLEA

one-hybrid fitness for binding parS DNA, 0.276:
YITY

one-hybrid fitness for binding parS DNA, 0.231:
KMQA

one-hybrid fitness for binding parS DNA, 0.387:
RWIT

one-hybrid fitness for binding parS DNA, 0.529:
RVPT

one-hybrid fitness for binding parS DNA, 0.446:
RRHY
